Assay [1] addresses T1, biotinylated CNKSR1 (wild-type) (human) (UniProt Q969H4).
T1 sequence (chain, biotinylated): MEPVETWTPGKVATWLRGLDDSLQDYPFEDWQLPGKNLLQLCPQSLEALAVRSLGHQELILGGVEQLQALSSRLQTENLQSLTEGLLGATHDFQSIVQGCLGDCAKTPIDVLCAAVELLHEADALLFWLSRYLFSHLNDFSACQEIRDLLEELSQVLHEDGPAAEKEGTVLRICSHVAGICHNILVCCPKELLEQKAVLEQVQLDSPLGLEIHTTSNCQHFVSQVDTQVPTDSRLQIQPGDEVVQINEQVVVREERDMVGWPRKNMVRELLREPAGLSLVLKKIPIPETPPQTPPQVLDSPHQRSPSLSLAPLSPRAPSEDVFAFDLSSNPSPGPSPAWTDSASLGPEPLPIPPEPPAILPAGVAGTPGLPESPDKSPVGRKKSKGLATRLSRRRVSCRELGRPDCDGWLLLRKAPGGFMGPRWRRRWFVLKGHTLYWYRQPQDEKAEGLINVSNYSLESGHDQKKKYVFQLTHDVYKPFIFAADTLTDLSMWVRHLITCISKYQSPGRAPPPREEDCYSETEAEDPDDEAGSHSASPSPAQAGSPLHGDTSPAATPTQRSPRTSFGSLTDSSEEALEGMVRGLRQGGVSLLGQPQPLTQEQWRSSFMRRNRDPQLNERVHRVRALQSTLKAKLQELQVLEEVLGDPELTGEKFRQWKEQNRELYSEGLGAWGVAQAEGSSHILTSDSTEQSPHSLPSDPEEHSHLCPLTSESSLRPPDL
Put plainly: AlphaScreen or HTRF; competition: purified His-RhoB (Q63L) (500 ng) added for 1 h to the mixture of CNKSR1-biotin and PTPRH-cyto-FLAG (wheat germ products); only the binder purified. (In general: Bead proximity is the source of the signal in Alpha formats.)

Chains of the proteins cited; added tags and fusions are not shown. Lines headed by an entry give the natural chain unless they say otherwise; changes in a name come on top.
UniProt P62745: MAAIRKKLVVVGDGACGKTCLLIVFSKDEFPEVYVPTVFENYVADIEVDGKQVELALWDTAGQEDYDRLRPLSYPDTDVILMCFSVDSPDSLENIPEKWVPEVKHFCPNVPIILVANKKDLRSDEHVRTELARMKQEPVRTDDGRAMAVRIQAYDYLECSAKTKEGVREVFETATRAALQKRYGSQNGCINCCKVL

In assay [2] the target is biotinylated RhoB (Q63L), constitutively active mutant (human) (UniProt P62745). The assay can be described thus: AlphaScreen or HTRF; high-throughput screen: biotin-tagged RhoB bait (WT, Q63L or T19N) with each FLAG-GST-tagged protein of the 4,212 human protein array; streptavidin donor beads, anti-DYKDDDDK antibody and protein A acceptor beads; 100 mM Tris-HCl pH 8.0, 0.01% Tween 20, 1 mg/ml BSA; 25°C, 1 h; wheat cell-free translation products.

Assay [3] addresses biotinylated RhoB (T19N), dominant negative mutant (human) (UniProt P62745). Described as above.
The target in assay [4] is biotinylated RhoB (wild-type) (human) (UniProt P62745). The description is as above.
The target of assay [5] is FLAG-tagged RhoB (Q63L) (human) (UniProt P62745). Put plainly: AlphaScreen or HTRF; as the in vitro binding assay, protein mixtures incubated with di-C8:0-PI(4,5)P2 for 1 h.
The target is the same in assay [6]. The assay can be described thus: AlphaScreen or HTRF; as the in vitro binding assay, protein mixtures incubated with PHT-7.3 (CNKSR1 inhibitor) for 1 h.
The target is the same in assay [7]. Put plainly: AlphaScreen or HTRF; in vitro binding assay of a biotinylated and a FLAG-tagged protein, both synthesized by wheat germ extracts; 100 mM Tris-HCl pH 7.5, 0.01% Tween 20, 1 mg/ml BSA, anti-FLAG antibody, streptavidin donor and anti-IgG acceptor beads; room temperature, 1 h; threshold of interaction 10 times the signal with DHFR.
The target of assay [8] is FLAG-tagged RhoB (T19N) (human) (UniProt P62745). The description is as above.
Assay [9] has as its target FLAG-tagged RhoB (wild-type) (human) (UniProt P62745). The assay is described as above.
Assay [10] addresses T2, PTPRH-HA (wild-type) (human) (UniProt Q9HD43).
T2 sequence: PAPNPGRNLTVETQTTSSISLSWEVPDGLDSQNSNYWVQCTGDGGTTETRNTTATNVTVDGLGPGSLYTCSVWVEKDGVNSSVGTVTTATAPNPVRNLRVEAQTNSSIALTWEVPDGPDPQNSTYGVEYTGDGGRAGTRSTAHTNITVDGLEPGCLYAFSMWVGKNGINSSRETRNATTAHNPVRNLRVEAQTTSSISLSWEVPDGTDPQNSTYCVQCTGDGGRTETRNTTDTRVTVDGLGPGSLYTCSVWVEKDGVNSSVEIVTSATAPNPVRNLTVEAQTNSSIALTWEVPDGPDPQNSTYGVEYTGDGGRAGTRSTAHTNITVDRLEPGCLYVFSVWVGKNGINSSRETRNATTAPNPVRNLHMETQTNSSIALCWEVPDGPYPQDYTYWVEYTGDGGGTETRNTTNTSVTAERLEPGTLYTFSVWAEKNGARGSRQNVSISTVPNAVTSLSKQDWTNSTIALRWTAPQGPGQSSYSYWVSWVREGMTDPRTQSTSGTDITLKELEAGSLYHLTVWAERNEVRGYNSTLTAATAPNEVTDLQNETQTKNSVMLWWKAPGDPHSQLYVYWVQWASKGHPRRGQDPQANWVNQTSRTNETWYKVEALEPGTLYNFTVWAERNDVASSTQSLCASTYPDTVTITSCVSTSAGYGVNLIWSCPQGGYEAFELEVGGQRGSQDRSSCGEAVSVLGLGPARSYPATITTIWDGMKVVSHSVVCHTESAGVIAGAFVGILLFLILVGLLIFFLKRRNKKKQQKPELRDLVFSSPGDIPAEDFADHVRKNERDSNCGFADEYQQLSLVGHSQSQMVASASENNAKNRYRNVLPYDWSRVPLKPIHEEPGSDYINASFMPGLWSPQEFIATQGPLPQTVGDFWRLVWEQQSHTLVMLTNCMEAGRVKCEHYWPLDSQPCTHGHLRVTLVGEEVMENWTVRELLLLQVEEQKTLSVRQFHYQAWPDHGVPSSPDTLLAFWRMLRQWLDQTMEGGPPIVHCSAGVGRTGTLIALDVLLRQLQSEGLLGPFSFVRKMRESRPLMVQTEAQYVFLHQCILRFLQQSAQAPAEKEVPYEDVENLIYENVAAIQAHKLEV
The assay can be described thus: co-IP; SKBR-3 cells, control siRNA or KCTD10 siRNA #1 for 72 h, 48 h after transfection of PTPRH-HA and CNKSR1 vectors; IP with HA antibody, Western blot; KCTD10 knockdown reduced the interaction.

Here are results for four molecules from publication PMC8321701.

No constants are given. Whether binding was seen depends on the method and setting. For some of these results: In cells and extracts the contact can be indirect. Some entries that bind do so weakly or less than the wild type. For some of these results: Sequences can lack the tags named with a protein.

Turning to “purified His-RhoB (Q63L) (from UniProt P62745 1-196)”, the binding entry in [1] is recorded as “binds”.

B1: FLAG-GST-tagged CNKSR1 of the 4,212 human protein array (protein, UniProt Q969H4 1-720)
chain: T1 sequence (chain, biotinylated)
Turning to B1, the binding result in assay [2] was “binds”; in assay [3], “no binding”; in assay [4], “no binding”.

B2: biotinylated CNKSR1 (wild-type) (protein, UniProt Q969H4 1-720)
chain: T1 sequence (chain, biotinylated)
modifications: biotinylated
Regarding B2, the binding entry is “binds” in assay [5]; “binds” in assay [6]; “binds” in [7]; “no binding” in [8]; “no binding” in assay [9].

B3: CNKSR1 (non-tagged), expressed in SKBR-3 cells (protein, UniProt Q969H4 1-720)
chain: T1 sequence (chain, biotinylated)
With B3, in assay [10], the binding result is on record as “binds”.
